# From the supplement of paper PMC8728848
# The list shows a part of the results.
# How the values were obtained:
# Assay in all cases: glycan array binding signal (z-score within array); higher = stronger binding
# Settings in all cases: glycan notation: IUPAC condensed, linker removed
# [1] = target: Gal(a1-3)Gal(b1-4)GlcNAc(b1-6)GalNAc
# Outline: (§1)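 The binding signal is a Z-score computed within each array and averaged over linkers. Arrays of the same protein sequence at different concentrations or buffers were also averaged together. Data originate from 3228 arrays in the Consortium for Functional Glycomics database, kept only where the protein sequence was available.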
# [2] = target: Gal(a1-3)Gal(b1-4)[Fuc(a1-3)]GlcNAc
# Outline: as §1
# [3] = target: Gal(a1-3)Gal(b1-4)[Fuc(a1-3)]GlcNAc(b1-2)Man(a1-3)[Gal(a1-3)Gal(b1-4)[Fuc(a1-3)]GlcNAc(b1-2)Man(a1-6)]Man(b1-4)GlcNAc(b1-4)GlcNAc
# Outline: as §1
# [4] = target: Gal(a1-3)GalNAc
# Outline: as §1
# [5] = target: Gal(a1-3)[Gal(a1-4)]Gal(b1-4)GlcNAc
# Outline: as §1
# [6] = target: Gal(a1-4)Gal(b1-3)GlcNAc(b1-2)Man(a1-3)[Gal(a1-4)Gal(b1-3)GlcNAc(b1-2)Man(a1-6)]Man(b1-4)GlcNAc(b1-4)GlcNAc
# Outline: as §1
# [7] = target: Gal(a1-4)Gal(b1-4)Glc
# Outline: as §1
# [8] = target: Gal(a1-4)Gal(b1-4)GlcNAc
# Outline: as §1
# [9] = target: Gal(a1-4)Gal(b1-4)GlcNAc(b1-2)Man(a1-3)[Gal(a1-4)Gal(b1-4)GlcNAc(b1-2)Man(a1-6)]Man(b1-4)GlcNAc(b1-4)GlcNAc
# Outline: as §1
# [10] = target: Gal(a1-4)Gal(b1-4)GlcNAc(b1-3)Gal(b1-4)Glc
# Outline: as §1
# [11] = target: Gal(a1-4)GlcNAc
# Outline: as §1
# [12] = target: Gal(a1-6)Glc
# Outline: as §1
# [13] = target: Gal(b1-2)Gal
# Outline: as §1
# [14] = target: Gal(b1-3)Gal
# Outline: as §1
# [15] = target: Gal(b1-3)Gal(b1-4)GlcNAc
# Outline: as §1
# [16] = target: Gal(b1-3)GalNAc
# Outline: as §1
# [17] = target: Gal(b1-3)GalNAc(a1-3)[Fuc(a1-2)]Gal(b1-4)Glc
# Outline: as §1
# [18] = target: Gal(b1-3)GalNAc(a1-3)[Fuc(a1-2)]Gal(b1-4)GlcNAc
# Outline: as §1
# [19] = target: Gal(b1-3)GalNAc(b1-3)Gal
# Outline: as §1
# [20] = target: Gal(b1-3)GalNAc(b1-3)Gal(a1-4)Gal(b1-4)Glc
# Outline: as §1
# [21] = target: Gal(b1-3)GalNAc(b1-4)Gal(b1-4)Glc
# Outline: as §1
# [22] = target: Gal(b1-3)GalNAc(b1-4)[Neu5Ac(a2-3)]Gal(b1-4)Glc
# Outline: as §1
# [23] = target: Gal(b1-3)GlcNAc
# Outline: as §1
# [24] = target: Gal(b1-3)GlcNAc(a1-3)Gal(b1-4)GlcNAc
# Outline: as §1
# [25] = target: Gal(b1-3)GlcNAc(a1-6)Gal(b1-4)GlcNAc
# Outline: as §1
# [26] = target: Gal(b1-3)GlcNAc(b1-2)Man
# Outline: as §1
# [27] = target: Gal(b1-3)GlcNAc(b1-2)Man(a1-3)[Gal(b1-3)GlcNAc(b1-2)Man(a1-6)]Man(b1-4)GlcNAc(b1-4)GlcNAc
# Outline: as §1
# [28] = target: Gal(b1-3)GlcNAc(b1-2)Man(a1-3)[Gal(b1-3)GlcNAc(b1-2)Man(a1-6)]Man(b1-4)GlcNAc(b1-4)[Fuc(a1-6)]GlcNAc
# Outline: as §1
# [29] = target: Gal(b1-3)GlcNAc(b1-2)Man(a1-3)[GlcNAc(b1-4)][Gal(b1-3)GlcNAc(b1-2)Man(a1-6)]Man(b1-4)GlcNAc(b1-4)GlcNAc
# Outline: as §1
# [30] = target: Gal(b1-3)GlcNAc(b1-2)[Gal(b1-3)GlcNAc(b1-6)]Man(a1-6)[Gal(b1-3)GlcNAc(b1-2)Man(a1-3)]Man(b1-4)GlcNAc(b1-4)GlcNAc
# Outline: as §1
# [31] = target: Gal(b1-3)GlcNAc(b1-3)Gal(b1-3)GlcNAc
# Outline: as §1
# [32] = target: Gal(b1-3)GlcNAc(b1-3)Gal(b1-4)Glc
# Outline: as §1
# [33] = target: Gal(b1-3)GlcNAc(b1-3)Gal(b1-4)GlcNAc
# Outline: as §1
# [34] = target: Gal(b1-3)GlcNAc(b1-3)Gal(b1-4)GlcNAc(b1-2)Man(a1-3)[Gal(b1-3)GlcNAc(b1-3)Gal(b1-4)GlcNAc(b1-2)Man(a1-6)]Man(b1-4)GlcNAc(b1-4)GlcNAc
# Outline: as §1
# [35] = target: Gal(b1-3)GlcNAc(b1-3)Gal(b1-4)GlcNAc(b1-2)[Gal(b1-3)GlcNAc(b1-3)Gal(b1-4)GlcNAc(b1-6)]Man(a1-6)[Gal(b1-3)GlcNAc(b1-3)Gal(b1-4)GlcNAc(b1-2)Man(a1-3)]Man(b1-4)GlcNAc(b1-4)[Fuc(a1-6)]GlcNAc
# Outline: as §1
# [36] = target: Gal(b1-3)GlcNAc(b1-3)Gal(b1-4)GlcNAc(b1-3)Gal(b1-4)GlcNAc(b1-2)[Gal(b1-3)GlcNAc(b1-3)Gal(b1-4)GlcNAc(b1-3)Gal(b1-4)GlcNAc(b1-6)]Man(a1-6)[Gal(b1-3)GlcNAc(b1-3)Gal(b1-4)GlcNAc(b1-3)Gal(b1-4)GlcNAc(b1-2)Man(a1-3)]Man(b1-4)GlcNAc(b1-4)[Fuc(a1-6)]GlcNAc
# Outline: as §1
# [37] = target: Gal(b1-3)GlcNAc(b1-3)Gal(b1-4)GlcNAc(b1-6)[Gal(b1-3)GlcNAc(b1-3)]Gal(b1-4)Glc
# Outline: as §1
# [38] = target: Gal(b1-3)GlcNAc(b1-3)Gal(b1-4)[Fuc(a1-3)]GlcNAc
# Outline: as §1
binder,measurement,setting,value
GSL-I (Griffonia simplicifolia) (protein) FNLPNFWSDVKDNIIFQGDANTTAGTLQLCKTNQYGNPLQYRAGRALYSDPVQLWDNKTGSVASFYTEFTFFLKITGDGPADGLAFFLAPPDSDVKDAGAYLGLFNKSTATQPSKNQVVAVEFDTWKNTDFPEPSYRHIGINVNSIVSVATKRWEDSDIFSGKIATARISYDGSAKILTVVLSYPDGADYILSHSVDLSKNLPNPIRVGISASTGANQFLTVYVLSWRFSSALQSTSVNAAMGPEIIRTVV,glycan array binding signal (z-score),[1],0.752
same,glycan array binding signal (z-score),[2],3.4
same,glycan array binding signal (z-score),[3],0.283
same,glycan array binding signal (z-score),[4],-0.09
same,glycan array binding signal (z-score),[5],1.01
same,glycan array binding signal (z-score),[6],9.69
same,glycan array binding signal (z-score),[7],1.26
same,glycan array binding signal (z-score),[8],1.82
same,glycan array binding signal (z-score),[9],3.15
same,glycan array binding signal (z-score),[10],1.54
same,glycan array binding signal (z-score),[11],4.53
same,glycan array binding signal (z-score),[12],-0.12
same,glycan array binding signal (z-score),[13],-0.261
same,glycan array binding signal (z-score),[14],-0.204
same,glycan array binding signal (z-score),[15],-0.214
same,glycan array binding signal (z-score),[16],-0.165
same,glycan array binding signal (z-score),[17],-0.176
same,glycan array binding signal (z-score),[18],-0.173
same,glycan array binding signal (z-score),[19],-0.276
same,glycan array binding signal (z-score),[20],-0.208
same,glycan array binding signal (z-score),[21],-0.115
same,glycan array binding signal (z-score),[22],-0.197
same,glycan array binding signal (z-score),[23],-0.197
same,glycan array binding signal (z-score),[24],-0.29
same,glycan array binding signal (z-score),[25],-0.28
same,glycan array binding signal (z-score),[26],-0.124
same,glycan array binding signal (z-score),[27],-0.092
same,glycan array binding signal (z-score),[28],-0.147
same,glycan array binding signal (z-score),[29],-0.271
same,glycan array binding signal (z-score),[30],0.055
same,glycan array binding signal (z-score),[31],-0.079
same,glycan array binding signal (z-score),[32],-0.194
same,glycan array binding signal (z-score),[33],-0.226
same,glycan array binding signal (z-score),[34],-0.197
same,glycan array binding signal (z-score),[35],0.136
same,glycan array binding signal (z-score),[36],-0.066
same,glycan array binding signal (z-score),[37],-0.151
same,glycan array binding signal (z-score),[38],-0.077
